Laboratory results taken from US11795195B2, “Antibody-drug conjugates including hemiasterlin derivative” (Sumitomo Pharma Co., Ltd., priority 2017, dated 2023).

Tests used:
Karpas-299 cells = test: Cellular Toxicity Test (2) for ADCs, cell survival relative to brentuximab; type: cell-based, human; conditions: Karpas-299, 2000 ng/mL solution added, 4 days, relative to cells surviving brentuximab treatment
Experimental: Karpas-299 cells were prepared to be 2×10^6 cells/mL in culture medium A, and were added to a 96 well microplate for cell culturing in an amount of 50 μL for each well. Brentuximab or Example ADCs, the concentration of which was prepared to be 2000 ng/mL with culture medium A, was added to the microplate in an amount of 50 μL for each well, and cultured at 37 degree under 5% CO2 for 4 days. After culturing, the microplate was taken out from the incubator, and was left at rest at room temperature for 10 minutes. To each well, 50 μL of CellTiter-Glo Luminescent Cell Viability Assay (Promega) was added, and the resultant mixture was stirred. This mixture was incubated at a dark place for 20 minutes, and luminescence was measured using a microplate luminometer, thereby determining the percentage of the number of cells that survived upon the treatment with Example ADCs relative to the number of cells that survived upon the treatment with brentuximab.

Raji = test: Cellular Toxicity Test (3) for ADCs; type: cell-based; conditions: treatment with 26.6 nM of ADC51
Experimental: In accordance with the method described in Test Example 3 or Test Example 7, cellular toxicities of Example ADCs were measured using the cell types shown in the following table. As an indicator for the cellular toxicity, IC50 or the cell survival rate upon the treatment with 333 nM of ADC was measured. However, for ADC 51, the cell survival rate upon the treatment with 26.6 nM of ADC51 was measured.

Row | Molecule | Cell survival rate (%) (Karpas-299 cells) | Cell survival rate (%) (Raji)
1 | Example ADC18: ADC of brentuximab and M15, average DAR 7.03 (conjugate, chains of the INN, looked up, drug-linker M15, DAR 7.03) heavy: QIQLQQSGPEVVKPGASVKISCKASGYTFTDYYITWVKQKPGQGLEWIGWIYPGSGNTKYNEKFKGKATLTVDTSSSTAFMQLSSLTSEDTAVYFCANYGNYWFAYWGQGTQVTVSA[human IgG1 constant region left out] light: DIVLTQSPASLAVSLGQRATISCKASQSVDFDGDSYMNWYQQKPGQPPKVLIYAASNLESGIPARFSGSGSGTDFTLNIHPVEEEDAATYYCQQSNEDPWTFGGGTKLEIKRTVAAPSVFIFPPSDEQLKSGTASVVCLLNNFYPREAKVQWKVDNALQSGNSQESVTEQDSKDSTYSLSSTLTLSKADYEKHKVYACEVTHQGLSSPVTKSFNRGEC | 53 | –
2 | Example ADC41: ADC of brentuximab and M47, average DAR 8 (conjugate, chains of the INN, looked up, drug-linker M47, DAR 8) heavy: QIQLQQSGPEVVKPGASVKISCKASGYTFTDYYITWVKQKPGQGLEWIGWIYPGSGNTKYNEKFKGKATLTVDTSSSTAFMQLSSLTSEDTAVYFCANYGNYWFAYWGQGTQVTVSA[human IgG1 constant region left out] light: DIVLTQSPASLAVSLGQRATISCKASQSVDFDGDSYMNWYQQKPGQPPKVLIYAASNLESGIPARFSGSGSGTDFTLNIHPVEEEDAATYYCQQSNEDPWTFGGGTKLEIKRTVAAPSVFIFPPSDEQLKSGTASVVCLLNNFYPREAKVQWKVDNALQSGNSQESVTEQDSKDSTYSLSSTLTLSKADYEKHKVYACEVTHQGLSSPVTKSFNRGEC | 63 | –
3 | ADC51: ADC of Alemtuzumab and M4, average DAR 7.7 (conjugate, chains of the INN, looked up, drug-linker M4, DAR 7.7) heavy: QVQLQESGPGLVRPSQTLSLTCTVSGFTFTDFYMNWVRQPPGRGLEWIGFIRDKAKGYTTEYNPSVKGRVTMLVDTSKNQFSLRLSSVTAADTAVYYCAREGHTAAPFDYWGQGSLVTVSS[human IgG1 constant region left out] light: DIQMTQSPSSLSASVGDRVTITCKASQNIDKYLNWYQQKPGKAPKLLIYNTNNLQTGVPSRFSGSGSGTDFTFTISSLQPEDIATYYCLQHISRPRTFGQGTKVEIKRTVAAPSVFIFPPSDEQLKSGTASVVCLLNNFYPREAKVQWKVDNALQSGNSQESVTEQDSKDSTYSLSSTLTLSKADYEKHKVYACEVTHQGLSSPVTKSFNRGEC | – | 96
